Assay results as given in PMC10604658.
These are yes or no findings as the source states them, for the method shown. Binding seen in cells or lysates may run through a third protein. Some binding calls cover weakened binding; strength is not graded here. Sequences can lack the tags named with a protein.

What was measured:
Test in all cases: pull-down; screen: HEK293T cells co-transfected with MYC-ETS2 and each of 59 SFB-tagged human DUBs; DUB pulled down with S-protein agarose beads from NETN lysate (100 mM NaCl, 0.05% NP-40), overnight at 4 °C; bound ETS2 detected by anti-MYC blot
[1] = molecular target: T1, SFB-USP4 (human) (UniProt Q13107)
T1 sequence: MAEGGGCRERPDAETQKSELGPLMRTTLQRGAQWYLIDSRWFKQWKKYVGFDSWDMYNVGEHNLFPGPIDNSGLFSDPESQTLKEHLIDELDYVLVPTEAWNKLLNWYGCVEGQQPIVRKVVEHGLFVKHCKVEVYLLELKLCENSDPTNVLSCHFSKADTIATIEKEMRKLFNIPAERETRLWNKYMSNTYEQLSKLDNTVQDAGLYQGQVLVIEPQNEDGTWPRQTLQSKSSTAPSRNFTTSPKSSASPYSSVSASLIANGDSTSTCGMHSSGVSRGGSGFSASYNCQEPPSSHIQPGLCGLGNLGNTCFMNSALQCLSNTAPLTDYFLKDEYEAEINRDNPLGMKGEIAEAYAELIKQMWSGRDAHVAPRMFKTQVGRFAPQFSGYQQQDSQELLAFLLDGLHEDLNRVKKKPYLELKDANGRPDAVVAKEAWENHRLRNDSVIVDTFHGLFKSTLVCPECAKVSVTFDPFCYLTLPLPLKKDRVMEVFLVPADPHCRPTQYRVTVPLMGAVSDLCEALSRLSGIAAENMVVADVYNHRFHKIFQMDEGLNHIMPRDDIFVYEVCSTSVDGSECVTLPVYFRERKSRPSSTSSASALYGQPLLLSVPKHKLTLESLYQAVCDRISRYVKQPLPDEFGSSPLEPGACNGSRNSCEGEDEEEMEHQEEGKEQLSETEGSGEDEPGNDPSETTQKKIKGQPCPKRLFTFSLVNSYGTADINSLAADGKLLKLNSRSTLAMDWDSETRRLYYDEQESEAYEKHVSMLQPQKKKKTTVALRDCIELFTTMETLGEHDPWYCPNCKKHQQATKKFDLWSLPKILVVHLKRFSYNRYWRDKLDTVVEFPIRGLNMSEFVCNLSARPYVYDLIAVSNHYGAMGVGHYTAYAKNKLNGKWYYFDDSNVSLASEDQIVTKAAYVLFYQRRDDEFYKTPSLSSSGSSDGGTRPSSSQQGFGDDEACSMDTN

[2] = molecular target: T2, SFB-TNFAIP3 (human) (UniProt P21580)
T2 sequence: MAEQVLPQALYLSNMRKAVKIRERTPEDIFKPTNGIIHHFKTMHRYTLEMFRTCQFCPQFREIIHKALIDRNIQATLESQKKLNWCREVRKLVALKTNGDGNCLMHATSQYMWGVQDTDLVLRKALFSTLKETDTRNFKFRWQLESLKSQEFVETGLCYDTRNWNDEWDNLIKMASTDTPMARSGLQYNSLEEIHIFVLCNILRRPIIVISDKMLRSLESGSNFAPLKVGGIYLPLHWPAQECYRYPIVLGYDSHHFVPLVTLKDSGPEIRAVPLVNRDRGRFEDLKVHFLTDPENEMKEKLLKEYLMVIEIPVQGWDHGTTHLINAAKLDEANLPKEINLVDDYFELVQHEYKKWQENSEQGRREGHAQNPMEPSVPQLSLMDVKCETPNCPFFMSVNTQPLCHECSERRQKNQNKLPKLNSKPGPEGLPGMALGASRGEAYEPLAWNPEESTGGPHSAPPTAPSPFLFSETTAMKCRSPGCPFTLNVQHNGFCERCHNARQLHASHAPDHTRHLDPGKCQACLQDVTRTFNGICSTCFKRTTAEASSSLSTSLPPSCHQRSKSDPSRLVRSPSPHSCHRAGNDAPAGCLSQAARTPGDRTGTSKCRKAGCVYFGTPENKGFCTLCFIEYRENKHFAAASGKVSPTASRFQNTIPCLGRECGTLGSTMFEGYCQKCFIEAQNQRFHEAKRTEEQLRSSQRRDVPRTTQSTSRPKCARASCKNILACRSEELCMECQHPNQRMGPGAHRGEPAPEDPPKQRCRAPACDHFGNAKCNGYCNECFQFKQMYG

[3] = molecular target: T3, SFB-USP44 (human) (UniProt Q9H0E7)
T3 sequence: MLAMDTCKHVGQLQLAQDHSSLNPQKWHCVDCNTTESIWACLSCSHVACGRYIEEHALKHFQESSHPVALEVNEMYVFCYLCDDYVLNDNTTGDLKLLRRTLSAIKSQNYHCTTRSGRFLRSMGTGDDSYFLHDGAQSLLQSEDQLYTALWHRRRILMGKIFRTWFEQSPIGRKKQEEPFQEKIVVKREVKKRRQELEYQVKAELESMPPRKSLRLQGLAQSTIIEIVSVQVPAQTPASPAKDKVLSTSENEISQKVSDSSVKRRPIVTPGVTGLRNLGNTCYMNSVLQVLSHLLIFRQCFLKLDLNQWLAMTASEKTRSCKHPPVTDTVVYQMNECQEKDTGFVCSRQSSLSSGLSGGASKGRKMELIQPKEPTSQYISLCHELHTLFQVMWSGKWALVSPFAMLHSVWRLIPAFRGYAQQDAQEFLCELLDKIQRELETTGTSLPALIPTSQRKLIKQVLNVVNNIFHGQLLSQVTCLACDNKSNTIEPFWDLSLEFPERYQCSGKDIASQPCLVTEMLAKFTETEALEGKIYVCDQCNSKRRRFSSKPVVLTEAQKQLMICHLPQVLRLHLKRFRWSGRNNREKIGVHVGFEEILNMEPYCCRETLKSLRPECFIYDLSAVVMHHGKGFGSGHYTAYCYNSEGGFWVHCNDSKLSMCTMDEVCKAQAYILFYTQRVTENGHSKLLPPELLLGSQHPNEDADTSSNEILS

Measured: binding

B1: MYC-ETS2 (protein, UniProt P15036 1-469)
chain: MNDFGIKNMDQVAPVANSYRGTLKRQPAFDTFDGSLFAVFPSLNEEQTLQEVPTGLDSISHDSANCELPLLTPCSKAVMSQALKATFSGFKKEQRRLGIPKNPWLWSEQQVCQWLLWATNEFSLVNVNLQRFGMNGQMLCNLGKERFLELAPDFVGDILWEHLEQMIKENQEKTEDQYEENSHLTSVPHWINSNTLGFGTEQAPYGMQTQNYPKGGLLDSMCPASTPSVLSSEQEFQMFPKSRLSSVSVTYCSVSQDFPGSNLNLLTNNSGTPKDHDSPENGADSFESSDSLLQSWNSQSSLLDVQRVPSFESFEDDCSQSLCLNKPTMSFKDYIQERSDPVEQGKPVIPAAVLAGFTGSGPIQLWQFLLELLSDKSCQSFISWTGDGWEFKLADPDEVARRWGKRKNKPKMNYEKLSRGLRYYYDKNIIHKTSGKRYVYRFVCDLQNLLGFTPEELHAILGVQPDTED
binds: all assays above
